Test results taken from paper PMC12136788.
The list shows a part of the results.

T1: UNK ZnF1-3 (human, UniProt Q9C0B0 31-174)
T1 sequence: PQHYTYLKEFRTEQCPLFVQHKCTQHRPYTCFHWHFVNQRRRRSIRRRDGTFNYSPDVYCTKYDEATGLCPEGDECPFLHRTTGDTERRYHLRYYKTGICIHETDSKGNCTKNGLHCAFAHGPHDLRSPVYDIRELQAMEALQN

B1: chr17:65740002:65740003:+_ENSG00000130935_ENST00000581375|hu_hu|FALSE|FALSE (ssRNA)
RNA: GGGAGUUCUACAGUCCGACGAUCACACCGUUCUUGCCUGGAUGAAGCAAGAGUUCACAUAAAAGAGCUUUAUAAAAUGUCUAUGAAGGAGAAUUGAUAAUAUCAGAAGAGCUCCAGCACUUCAAUUGAAUAUAAUCCUCUAUUCAACAGAGGAUUGAGCAUCA
B2: chr11:85347198:85347199:+_ENSG00000171204_ENST00000358867|hu_mus|motif|central (ssRNA)
RNA: GGGAGUUCUACAGUCCGACGAUCCCUUGCACGUGGUUUUUCACAUAUAUUGUAAUGAUGUAAGCCAGUAAAAGCUCCCAUUACGGUCUGAAAGAACAGAGGAAUAGCCAUUGCUUUCAUCCCAGUUUGACAAAGGAGCAACCACAACAGAGGAUUGAGCAUCA
B3: 60013606_60014000_3223_CDS_ENSMUSG00000020538_ENSMUST00000020846|mouse|control|control (ssRNA)
RNA: GGGAGUUCUACAGUCCGACGAUCGGUGUGCUCCCGCCAUGUGGGCCGUGGCUCCAGCUCAGCUGUAGUGCCUCCUUUGCCACUGGAACCUGCCCUCCUCCUCAGACUGCGAUCCAGGAGCUGGUGUGUCCGGGCAGGACUUGCCAACAGAGGAUUGAGCAUCA
B4: chr2:69032557:69032558:-_ENSMUSG00000005233_ENSMUST00000005365|mus_mus|motif|central (ssRNA)
RNA: GGGAGUUCUACAGUCCGACGAUCAUUGGCAAGAAAAGCUGAAAAAUUGUUGGUCUUCCUGACUUUCUCCUGAAAUUCUGCGGGGCACUCAAGAUGAGGCGAACUGUCGUACACUUCAUAUUCCUUAGCUUCAUUUAUGCUCAUCAACAGAGGAUUGAGCAUCA
B5: chr5:128440902:128440903:+_ENSG00000066583_ENST00000173527|hu_mus|hu_hu_hu_mus_True|48_78 (ssRNA)
RNA: GGGAGUUCUACAGUCCGACGAUCUUGAACGGUGCUGCCAAGUCCUUUGGGGUAUUGUUCUGUUACAAUAACUGGAAUCCCUAAGAUCCGGGCCCCUUGCAACAGUCUCUGUCCCACACUAAUGAUGUCCCCAAAGUAUUUGAUCAACAGAGGAUUGAGCAUCA
B6: chr2:9570881:9570882:+_ENSG00000119203_ENST00000238112|hu_mus|hu_hu_hu_mus_False|18_28 (ssRNA)
RNA: GGGAGUUCUACAGUCCGACGAUCACUUGUCUUCUGAAGGAACCAGGGCAGGGCUCCACAGUGAUCCAAAUGGAAAUGACUGAUCAACAGAAGGUCGAUCUCAGCUGGGUCAAUUAAAUCAAUAUAAGGAAGGGCAUCCAUUCCCAACAGAGGAUUGAGCAUCA
B7: chr2:198351390:198351391:-_ENSG00000144381_ENST00000345042|hu_hu|hu_hu_hu_mus_False|58_108 (ssRNA)
RNA: GGGAGUUCUACAGUCCGACGAUCUCAUUCUCACUCUCCACAGAAAGGCUGCUUCUGAACUCUCAUGUGGUGACACAGCACUAAAAUCCUGAUGCUCACAGAACAGUAGAGAUGCCUCAGUGAUUUAAGUUGAAAGCAGGACACCAACAGAGGAUUGAGCAUCA
B8: chr1:178670160:178670161:-_ENSMUSG00000057335_ENSMUST00000057037|mus_hu|motif|central (ssRNA)
RNA: GGGAGUUCUACAGUCCGACGAUCUUGAGGUCUUGGAUCACCAGAUCGACCGUUGUUUCCUUCUGGUGUUUUGGAAUGAACGGAUGGAGGAAUCUUUCGGAAGUUGAGGCUUUCAUCAAAAACACGAUCAACCAACUCUUCUCUCAACAGAGGAUUGAGCAUCA
B9: chr4:57314706:57314707:+_ENSG00000128050_ENST00000264221|hu_mus|hu_hu_hu_mus_True|58_88 (ssRNA)
RNA: GGGAGUUCUACAGUCCGACGAUCCAGAAUUUCAAAAAUAGCUUGUGUAGCAUGACUCAUGAUGUCCACUUCAGUCUGGCCUAUAAGAAGGCCAGCAAAACAGAAUUUUGCAGCAAUGAGUUGCUCCUCAGACCACUGUGGAUCCAACAGAGGAUUGAGCAUCA
B10: 29840190_29843829_555_CDS_ENSG00000197321_ENST00000375400|human|control|control (ssRNA)
RNA: GGGAGUUCUACAGUCCGACGAUCGCCGAUGUGGGGGCUGGCAGGGUCGCUGGCUCUCAUGUAUCGAGGGGUGUCUUCCUCCAGCAGGCGGUGAGUCACCAAUCCUGUGCAGCUCUGCAAGAGGAUGGGCUGAGUGUCAUUUUCCAACAGAGGAUUGAGCAUCA
B11: chr7:71034872:71034873:-_ENSMUSG00000052040_ENSMUST00000063694|mus_mus|FALSE|FALSE (ssRNA)
RNA: GGGAGUUCUACAGUCCGACGAUCGGCCAAUUCUCCACAUCAAAAUGAAGAGAGGUCUCUGUAAGAUAACCCAUGUCCAUCCCAAACCCACCCACCACCCAAUACACACUCACGCGCGCGCGCACACACACACACACACACACACAACAGAGGAUUGAGCAUCA
B12: 78614377_78614497_1087_CDS_ENSG00000149256_ENST00000278550|human|control|control (ssRNA)
RNA: GGGAGUUCUACAGUCCGACGAUCGCCGCCGGCAGGGGGCUCUCCGGAGAGCGAGUGGUCCGUGGGGGCCGGGCUGGGGUUGCUCCUCGGCGUGAAGUUGCCCCGGUUCAGGGAGUUAAUGGAGGCCGCGUGGUGCUGGUUGGGCAACAGAGGAUUGAGCAUCA
B13: chr5:128441001:128441002:+_ENSG00000066583_ENST00000173527|hu_hu|motif|central (ssRNA)
RNA: GGGAGUUCUACAGUCCGACGAUCGCACACAUGAGUUUCUACUCCAAAUAAUACAACACUCCUGACUCCGGGAAUCUCUGCGGAUGCCGCUUCUACUUCUGGUAAUACCAUUGAAAACUUGGUCUUUGGAAGUACCAGUUUUACCAACAGAGGAUUGAGCAUCA
B14: chr7:151048522:151048523:+_ENSG00000013374_ENST00000566856|hu_mus|hu_hu_hu_mus_True|68_98 (ssRNA)
RNA: GGGAGUUCUACAGUCCGACGAUCCUGUUUCUUAUUUAUGACAAUUUUGAUGUAAUUUUCUUGAAAUCCAAAGGUUUCAGCUAUUUGACACCUCAGGUCUCUACCAGUGACAUGCAAGCGGGUCUCCAACAAGCUUUUCUUAUCCAACAGAGGAUUGAGCAUCA
B15: 48681835_48685339_445_CDS_ENSG00000162869_ENST00000294952|human|control|control (ssRNA)
RNA: GGGAGUUCUACAGUCCGACGAUCUAUCUUCUUUUGCAGAUCUUCAUCAAAGACACUCUUCUGCUCUUGACUCAACUGAGAAGAAGAUUCUCCACUUUUCUUGUUUUUCUUGCCUCGUGGUUCACUUAGAGCUAGUUCAUCUUGCAACAGAGGAUUGAGCAUCA
B16: 100449551_100449671_332_5pUTR_ENSMUSG00000028532_ENSMUST00000030257|mouse|control|control (ssRNA)
RNA: GGGAGUUCUACAGUCCGACGAUCAAACUUUCCUCGUCUCCUGCGCUCUCGGCUCCACGGCGCGGCGGCUGUAGCUGGAAAACUUAGGGGGCGCCCGGCUGCAGCGCGGGCGCGCGGGCGGCCACCAUCGCCCGGCGGCAGCGGCAACAGAGGAUUGAGCAUCA
B17: chr2:201943701:201943702:+_ENSG00000119013_ENST00000433898|hu_mus|motif|central (ssRNA)
RNA: GGGAGUUCUACAGUCCGACGAUCAUUGCGAGCCCAUGGAUCCCUCAGCCCUCGGGCAGCAAGCUUCUUCUGCACCGUUUCGGAUGGCGUCCCUUCAAUUUUCCACUGUCUGUAAUCUGGAAGUUCCAUUUUACCAUGGCCAUGCAACAGAGGAUUGAGCAUCA
B18: chr17:64801638:64801639:+_ENSG00000154229_ENST00000413366|hu_mus|hu_hu_hu_mus_False|18_18 (ssRNA)
RNA: GGGAGUUCUACAGUCCGACGAUCUAUAUAUAUAUAUACAUAUGUACACAUAUAUAGUAAAACCCUAGUUAAACGUGUAAAGUAGCCAUUCAUUUUUAAAAUUACAUCUACAUUAAAAAAGUAAUCUAUCUGAUAGAGUGCCAGCAACAGAGGAUUGAGCAUCA
B19: 5791108_5791228_6409_CDS_ENSG00000108021_ENST00000328090|human|control|control (ssRNA)
RNA: GGGAGUUCUACAGUCCGACGAUCCGGGUGCCUCCUCAGGCCGUGUGAAGUUCUCAUGGUAUCUUUGAGUUCUUUUGUUAUAGAGAAGUUGGCGUAAGUCCUGAGGAUCCCGUGGAGAUCUCGGAUUUGGACGUAAGGCGGCACCAACAGAGGAUUGAGCAUCA
B20: chr22:19452774:19452775:-_ENSG00000070010_ENST00000399523|hu_hu|hu_hu_hu_mus_False|8_78 (ssRNA)
RNA: GGGAGUUCUACAGUCCGACGAUCCUUCUCAUUGUAGUUGAUAGCAAUCACAUCUCCGGUGGUCAGACAGGCGAAGUUUCUCAAUGCAUUUUCUAAUACCGCUUUAGGGUUGGUAAUAUCCAGGAAGUCAGGGCUCUGAGGCUGCAACAGAGGAUUGAGCAUCA
B21: chr2:20889081:20889082:-_ENSMUSG00000036591_ENSMUST00000173194|mus_hu|FALSE|FALSE (ssRNA)
RNA: GGGAGUUCUACAGUCCGACGAUCUUUCAUUUCAAAUGACAAAGAAGGGACAAAUCCUUUGGAGUCCACAUUGGACGUGGCGGGGAAUGCCACCACACACCCGAAGGGGAAGAAUUCCACAAGCAGGCUCCGAGGAGGGGCAGGCAACAGAGGAUUGAGCAUCA
B22: chr13:100193591:100193592:-_ENSMUSG00000052727_ENSMUST00000064762|mus_hu|motif|central (ssRNA)
RNA: GGGAGUUCUACAGUCCGACGAUCUUUAAACCCUCAUCAUAGUUAGCAGUGCAAAACAUAGACUUAUCAGACAAAAAUCAACGGAAAUGUUAAUUUUGAAAUAAAUAACUAACAUAGAAAAUAAAAUGAGGUCAUUGUUCUCUACAACAGAGGAUUGAGCAUCA

Biological target: T1, UNK ZnF1-3
Assay: nsRBNS (natural sequence RNA bind-n-seq); RBNS binding buffer (assumed for nsRBNS): 25 mM Tris pH 7.5, 150 mM KCl, 3 mM MgCl2, 0.01% Triton X-100, 500 ug/ml BSA, 20 U/ml SUPERase-In, 4 C; UNK is unkempt and MSI1 is Musashi-1; names of the RNAs are library labels; protein concentration not given here; high values mean tight binding

In order of rising binding signal:
1. B15  0.489 enrichment R
2. B5  0.633 enrichment R
3. B3  0.666 enrichment R
4. B19  0.672 enrichment R
5. B17  0.752 enrichment R
6. B14  0.769 enrichment R
7. B8  0.814 enrichment R
8. B10  0.871 enrichment R
9. B9  0.91 enrichment R
10. B4  0.93 enrichment R
11. B20  0.962 enrichment R
12. B1  1.01 enrichment R
13. B21  1.12 enrichment R
14. B7  1.22 enrichment R
15. B16  1.25 enrichment R
16. B22  1.3 enrichment R
17. B13  1.38 enrichment R
18. B12  1.41 enrichment R
19. B18  1.43 enrichment R
20. B6  1.5 enrichment R
21. B2  1.93 enrichment R
22. B11  2.94 enrichment R
